These are yes or no findings as the source states them, for the method shown. For some assays here: In cells and extracts the contact can be indirect. Some entries that bind do so weakly or less than the wild type. For some assays here: Sequences can lack the tags named with a protein.
How the values were obtained:
[1] = molecular target: T1, GFP-tagged FAM47E (human) (UniProt Q6ZV65); test: co-IP; HEK293 cells transfected with GFP or GFP-FAM47E; RIPA buffer; GFP-Trap A beads; bound fractions probed with PRMT5 antibody (endogenous PRMT5)
T1 sequence: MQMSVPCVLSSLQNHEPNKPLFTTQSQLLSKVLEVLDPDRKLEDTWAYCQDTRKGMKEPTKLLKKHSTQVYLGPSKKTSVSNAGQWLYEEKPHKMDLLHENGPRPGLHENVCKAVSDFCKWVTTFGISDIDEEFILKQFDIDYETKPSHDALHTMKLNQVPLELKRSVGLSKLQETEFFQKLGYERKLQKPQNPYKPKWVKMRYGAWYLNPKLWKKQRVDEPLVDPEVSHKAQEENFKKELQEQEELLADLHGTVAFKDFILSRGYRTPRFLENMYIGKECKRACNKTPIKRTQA

Amino acid sequences for entries named in this document (tags omitted). A change or cut given only in a name is not applied to a line headed by its entry.
UniProt O14744: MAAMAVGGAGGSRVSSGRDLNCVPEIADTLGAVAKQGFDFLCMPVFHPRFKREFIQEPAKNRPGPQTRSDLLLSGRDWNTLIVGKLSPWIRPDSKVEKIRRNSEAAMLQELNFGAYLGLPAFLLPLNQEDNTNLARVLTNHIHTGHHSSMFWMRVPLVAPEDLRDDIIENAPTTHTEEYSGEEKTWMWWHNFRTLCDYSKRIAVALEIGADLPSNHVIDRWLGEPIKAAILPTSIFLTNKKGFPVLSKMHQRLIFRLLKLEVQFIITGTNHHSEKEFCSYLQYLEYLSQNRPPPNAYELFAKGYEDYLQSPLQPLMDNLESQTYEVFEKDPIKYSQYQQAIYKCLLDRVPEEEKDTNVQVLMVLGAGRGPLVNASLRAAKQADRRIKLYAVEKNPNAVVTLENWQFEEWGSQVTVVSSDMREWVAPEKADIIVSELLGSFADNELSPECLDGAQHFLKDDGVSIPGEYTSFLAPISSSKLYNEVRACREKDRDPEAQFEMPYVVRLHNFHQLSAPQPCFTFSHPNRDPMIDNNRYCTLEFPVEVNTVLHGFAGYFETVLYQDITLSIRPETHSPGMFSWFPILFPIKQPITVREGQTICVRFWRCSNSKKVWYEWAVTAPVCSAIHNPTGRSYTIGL
UniProt Q92905: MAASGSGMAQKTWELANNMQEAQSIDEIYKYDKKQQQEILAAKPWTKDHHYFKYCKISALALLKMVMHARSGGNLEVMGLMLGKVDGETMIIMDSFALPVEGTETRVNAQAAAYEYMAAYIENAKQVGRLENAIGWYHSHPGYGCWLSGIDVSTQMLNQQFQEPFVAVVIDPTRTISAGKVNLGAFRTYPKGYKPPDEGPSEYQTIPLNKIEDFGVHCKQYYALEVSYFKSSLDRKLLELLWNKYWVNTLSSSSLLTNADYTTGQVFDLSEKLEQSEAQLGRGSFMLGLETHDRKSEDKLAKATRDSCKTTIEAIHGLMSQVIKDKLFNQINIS

GFP-tagged PRMT5 (human) [2] = molecular target: GFP-tagged PRMT5 (human) (UniProt O14744); test: co-IP; HEK293 cells co-transfected; lysis buffer 10 mM Tris pH 7.5, 150 mM NaCl, 0.5 mM EDTA, 0.5% NP-40; GFP-Trap A beads, 8 h at 4°C; with or without HA-FAM47E overexpression; bound fractions probed with Myc antibody
[3] = molecular target: PRMT5 (protein arginine methyltransferase 5), pGBKT7-PRMT5 two-hybrid bait (human) (UniProt O14744); test: two-hybrid; library screen, Matchmaker Gold system; pGBKT7-PRMT5 as bait, normalized human cDNA library as prey; low stringency (two reporter genes) and high stringency (four reporter genes) selection media
[4] = molecular target: T1, GFP-tagged FAM47E (human); test: co-IP; HEK293 cells co-transfected; lysis buffer 10 mM Tris pH 7.5, 150 mM NaCl, 0.5 mM EDTA, 0.5% NP-40; GFP-Trap A beads, 8 h at 4°C; with or without HA-FAM47E overexpression; bound fractions probed with Myc antibody
[5] = molecular target: T1, GFP-tagged FAM47E (human); test: co-IP; HEK293 cells co-transfected with both tagged constructs; lysed in RIPA buffer; GFP-Trap A beads, 8 h at 4°C; bound fractions probed with Myc or HA antibody
[6] = molecular target: PRMT5 (protein arginine methyltransferase 5), pGBKT7-PRMT5 two-hybrid bait (human) (UniProt O14744); test: two-hybrid; co-transformation of pGBKT7-PRMT5 and pGADT7-FAM47E in MM Gold yeast strain, with vector controls; SD-Trp/-Leu/+Aba/+X-alpha-Gal and SD-Trp/-Leu/-His/-Ade/+Aba/+X-alpha-Gal media
GFP-tagged PRMT5 (human) [7] = molecular target: GFP-tagged PRMT5 (human) (UniProt O14744); test: co-IP; HEK293 cells co-transfected with both tagged constructs; lysed in RIPA buffer; GFP-Trap A beads, 8 h at 4°C; bound fractions probed with Myc or HA antibody

endogenous PRMT5 (from UniProt O14744 1-637) (enzyme)
binding [1]: binds

Myc-tagged E3 ubiquitin ligase CHIP (from UniProt Q9UNE7-1 1-303) (enzyme)
binding (GFP-tagged PRMT5 (human) [2]): binds

COP9 signaling complex subunit 5 (COPS5 protein), full length, two-hybrid library clone (from UniProt Q92905 1-334)
binding [3]: no binding

Myc-tagged MEP50 (from UniProt Q9BQA1-1 1-342)
binding [4]: binds

Myc-tagged PRMT5 (from UniProt O14744-1 1-637) (enzyme)
binding [5]: binds

B1: C-terminal region of FAM47E isoform 2 (43 amino acid to 295 amino acid), two-hybrid library clone (domain or fragment, UniProt Q6ZV65-2 43-295)
chain: EDTWAYCQDTRKGMKEPTKLLKKHSTQVYLGPSKKTSVSNAGQWLYEEKPHKMDLLHENGPRPGLHENVCKAVSDFCKWVTTFGISDIDEEFILKQFDIDYETKPSHDALHTMKLNQVPLELKRSVGLSKLQETEFFQKLGYERKLQKPQNPYKPKWVKMRYGAWYLNPKLWKKQRVDEPLVDPEVSHKAQEENFKKELQEQEELLADLHGTVAFKDFILSRGYRTPRFLENMYIGKECKRACNKTPIKRTQA
binding [3]: binds

B2: FAM47E isoform 2, full length, pGADT7-FAM47E two-hybrid prey (protein, UniProt Q6ZV65-2 1-295)
chain: MQMSVPCVLSSLQNHEPNKPLFTTQSQLLSKVLEVLDPDRKLEDTWAYCQDTRKGMKEPTKLLKKHSTQVYLGPSKKTSVSNAGQWLYEEKPHKMDLLHENGPRPGLHENVCKAVSDFCKWVTTFGISDIDEEFILKQFDIDYETKPSHDALHTMKLNQVPLELKRSVGLSKLQETEFFQKLGYERKLQKPQNPYKPKWVKMRYGAWYLNPKLWKKQRVDEPLVDPEVSHKAQEENFKKELQEQEELLADLHGTVAFKDFILSRGYRTPRFLENMYIGKECKRACNKTPIKRTQA
binding [6]: binds

B3: HA-tagged FAM47E (protein, UniProt Q6ZV65-2 1-295)
chain: MQMSVPCVLSSLQNHEPNKPLFTTQSQLLSKVLEVLDPDRKLEDTWAYCQDTRKGMKEPTKLLKKHSTQVYLGPSKKTSVSNAGQWLYEEKPHKMDLLHENGPRPGLHENVCKAVSDFCKWVTTFGISDIDEEFILKQFDIDYETKPSHDALHTMKLNQVPLELKRSVGLSKLQETEFFQKLGYERKLQKPQNPYKPKWVKMRYGAWYLNPKLWKKQRVDEPLVDPEVSHKAQEENFKKELQEQEELLADLHGTVAFKDFILSRGYRTPRFLENMYIGKECKRACNKTPIKRTQA
binding (GFP-tagged PRMT5 (human) [7]): binds
